Screen size: about 110,000 compounds; about 230 (0.21%) showed an effect of 50% or more. The list shows a part of the results.
target: DPAP1 (Plasmodium falciparum, UniProt Q8IIJ9); assay: primary screen, percent inhibition; read by cleavage of a fluorogenic dipeptide substrate; higher = more effect of the substance; set-up: species or system P. falciparum D10 trophozoite lysates; single well
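Note: 30 min substrate incubation versus DMSO and 10 µM JCP410 controls.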

Chain of DPAP1 (Q8IIJ9 whole entry, looked up): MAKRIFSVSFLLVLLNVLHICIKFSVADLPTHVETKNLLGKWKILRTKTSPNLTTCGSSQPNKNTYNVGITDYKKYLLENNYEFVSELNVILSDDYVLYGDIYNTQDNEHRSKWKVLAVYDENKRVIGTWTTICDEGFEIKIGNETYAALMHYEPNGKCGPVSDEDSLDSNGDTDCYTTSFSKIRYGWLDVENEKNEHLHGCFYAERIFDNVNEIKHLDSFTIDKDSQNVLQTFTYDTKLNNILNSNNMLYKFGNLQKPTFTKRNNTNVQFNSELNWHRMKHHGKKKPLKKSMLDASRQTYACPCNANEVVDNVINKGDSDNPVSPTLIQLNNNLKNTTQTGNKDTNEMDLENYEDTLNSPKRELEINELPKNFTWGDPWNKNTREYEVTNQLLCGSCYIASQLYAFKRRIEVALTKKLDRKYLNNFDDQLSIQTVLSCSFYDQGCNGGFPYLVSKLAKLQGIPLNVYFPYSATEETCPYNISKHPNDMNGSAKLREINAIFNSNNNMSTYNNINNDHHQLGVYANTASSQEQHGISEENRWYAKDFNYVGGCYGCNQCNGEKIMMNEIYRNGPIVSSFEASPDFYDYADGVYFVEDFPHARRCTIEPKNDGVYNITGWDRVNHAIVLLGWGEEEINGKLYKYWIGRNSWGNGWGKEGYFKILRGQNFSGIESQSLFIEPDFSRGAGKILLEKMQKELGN

SMILES	% Inhibition @ 10 uM [%]
CCN1C(=O)N/C(=C/c2cn(CC)c3ccccc23)C1=O	-4.69
O=C(c1cccc(F)c1)N1Cc2ccccc2-c2ccccc2C1=O	0.565
CC(C)c1nc(NCc2ccccc2)c(C#N)c2c1CCCC2	0.193
CCCN1CCC(N2CCN(c3ccc(Cl)cc3)CC2)CC1	1.57
O=C1CCCC2=C1C(c1cccc(Br)c1)Nc1ccc3ncccc3c12 (centres unmarked)	3.06
O=C1CN(S(=O)(=O)c2ccc3nc(O)ccc3c2)CC(=O)N1CCc1ccccc1	0.526
CCOCCCNc1nc2c(S(=O)(=O)c3c(C)cc(C)cc3C)nnn2c2ccccc12	-8.58
CCOc1ccc(C(=O)NC2CCCC2)cc1	2.36
Cc1ccc(C(=O)Nc2sc3c(c2C(=O)N2CCCCC2)CCC3)cc1	-0.67
Cc1cc(C)c(S(N)(=O)=O)c(C)c1	-7.42
O=C(O)CN1C(=O)/C(=C/c2ccc(Br)o2)SC1=S	1.27
O=C(O)c1cc(-c2ccccc2)nc2c(Cl)cccc12	-3.33
COc1cc(OC)cc(C(=O)N2CCC3(CC2)N=C(c2ccccc2)C(=O)N3)c1	6.99
CN(CC(=O)NC1CCCCC1)S(=O)(=O)c1ccc(Br)s1	0.559
CC(C)(C)OC(=O)N1CCC(c2c(C(=O)N3CCOCC3)cnn2-c2ccc(F)cc2F)CC1	-1.79
Cc1sc2nc(-c3cc(Cl)ccc3O)nc(O)c2c1C	-5.16
COC(=O)c1cc2occc2n1Cc1c(C)cc(C)cc1C	2.06
CCOC(=O)c1c(NC(=O)CNC2CCCCC2)sc2c1CCCC2	-0.415
O=c1cccc2n1CC1CC2CN(c2ccc3nnc(-c4ccccc4)n3n2)C1 (centres unmarked)	-4.85
Oc1nc2cc(Br)cnc2[nH]1	4.08
Cc1ccc(Cl)cc1NC(=O)CSc1nc2ccc(N)cc2s1	2.45
CC(C)C[C@H](NC(=O)N1CCN(c2ccc([N+](=O)[O-])cc2)CC1)C(=O)NCC#N	4.33
O=C(c1ccc(F)cc1)c1ccc(F)cc1	-5.07
COc1ccccc1N1CCN(Cc2ccc(F)cc2F)CC1	1.55
Cc1ccccc1N1C(=O)C(Cl)=C(N2CCCCC2)C1=O	-0.661

SMILES	% Inhibition @ 10 uM [%]
COc1ccc(CSc2nnnn2-c2ccc(C(=O)O)cc2)cc1	-0.142
O=C(Cn1cnc2c(nnn2-c2ccc(F)cc2)c1=O)NCc1ccc2c(c1)OCO2	-7.71
COc1ccc(-c2cc3nc(C)c(CCC(=O)Nc4ccc(Cl)cn4)c(C)n3n2)c(OC)c1	1.26
COc1ccc(CCC(C)NCCCn2ccnc2)cc1 (centres unmarked)	1.88
CC(Oc1ccc(F)cc1)C(=O)Nc1ccc(S(=O)(=O)Nc2nccs2)cc1 (centres unmarked)	1.08
CC(=O)N1N=C(c2c(O)nc3ccc(Cl)cc3c2-c2ccccc2)CC1c1ccco1 (centres unmarked)	4.01
O=c1oc2cc(S(=O)(=O)NCCO)ccc2c2ccc(S(=O)(=O)NCCO)cc12	-1.33
NCCSCC(=O)NC1C2CC3CC(C2)CC1C3 (centres unmarked)	-9.49
CCOc1cc(CN2CCN(S(C)(=O)=O)CC2)ccc1OC	0.131
CCCOc1ccc(N2C(=O)CC(SCC(=O)Nc3ccc(Br)cc3)C2=O)cc1 (centres unmarked)	11.2
O=C(Cn1c(C(Cl)(Cl)Cl)nc2ccccc2c1=O)c1ccccc1	17.1
CCCN(CCC)CCNC(=O)c1noc2c1COc1ccc(C)cc1-2	-4.07
Cc1ccc(-c2cc(C(=O)O)c3cc(Br)ccc3n2)o1	-1.1
CCOc1ccc(C2CC(c3c(O)cc(C)oc3=O)=Nc3ccccc3S2)cc1 (centres unmarked)	7.12
O=C(O)c1ccc(NC(=O)c2cccc(N3C(=O)C4C5CCC(C5)C4C3=O)c2)cc1 (centres unmarked)	-5.31
COc1cc(CNC2CCCCC2OC)cc(OC)c1 (centres unmarked)	-1.54
Brc1cccc(CN2CCN(Cc3ccccc3)CC2)c1	-3.71
OC1CCCN(Cc2ccc(Cl)cc2)C1 (centres unmarked)	-8.13
COC(=O)c1ccc(CSc2ccc(Oc3ccccc3)cc2)cc1	-5.47
CSc1nc(O)c2cnn(-c3ccc(Cl)cc3)c2n1	1.9
Cc1ccc(S(=O)(=O)N(CC(=O)Nc2ccc(C(N)=O)cc2)Cc2ccc(Cl)cc2)cc1	1.19
CC(=O)C1=C(O)C(=O)N(c2ccc(O)cc2)C1c1ccccc1 (centres unmarked)	1
CC(=O)c1cccc(NC(=O)Nc2ccccc2)c1	-4.06
CC(C)C(NS(=O)(=O)c1ccc(/C=C/C(=O)O)cc1)C(=O)O (centres unmarked)	-5.19
COc1ccc(S(=O)(=O)N(CC(=O)Nc2cc(Cl)ccc2C)c2ccc(F)cc2)cc1OC	1.94

SMILES	% Inhibition @ 10 uM [%]
Cn1c(NC(=O)C2CC3CCC2C3)cc(=O)n(C)c1=O (centres unmarked)	-6.57
CCS(=O)(=O)c1ncc(Cl)c(C(=O)Nc2sc3c(c2C(N)=O)CCCC3)n1	-1.11
CCOC(=O)c1c(N)nn(C(=O)Cc2ccccc2)c1-c1ccc(OC)cc1	-1.05
COc1ccc(/C=C/C(=O)NCC(=O)N2CCC(N(C)C3CCCC3)CC2)cc1OC	-2.85
Cc1cc(C)c([N+](=O)[O-])c(C)c1-c1c(C#N)c(N)nc2c1CCCCC2	-0.292
C=CCNC(=O)C(=O)Nc1cccc(C(F)(F)F)c1	1.29
COC(=O)C1=C(C)N(CC(C)C)C(=O)/C1=C\c1ccc(Cl)c(Cl)c1	1.72
CCOCCCNC(=O)C(C)Sc1ccccc1 (centres unmarked)	-2.21
Cc1ccc(CNC(=O)c2cnn3c(C)c(Cc4ccc(F)cc4Cl)c(C)nc23)cc1	1.16
C=CCn1c(SCc2csc(C)n2)nc2sc3c(c2c1=O)CCC3	2.38
COCCNC(=O)/C(C#N)=C/c1c(Oc2ccccc2Cl)nc2ccccn2c1=O	-6.23
CCOC(=O)C1=C(C)N=c2s/c(=C\c3cccnc3)c(=O)n2C1c1ccc2c(c1)OCO2 (centres unmarked)	-1.37
CC1=CSC2=NC(C(F)(F)F)(C(F)(F)F)NC(=O)N12	-3.53
Cc1coc2cc3oc(=O)c(CC(=O)N4CCOCC4)c(C)c3cc12	4.13
O=C(CCC1CCCC1)Nc1ccccn1	-4.61
CC(=O)NCc1nc2ccccc2n1C(C)c1ccccc1 (centres unmarked)	-4.07
CCS(=O)(=O)c1ncc(Cl)c(C(=O)N(Cc2ccc(OC)cc2)C2CCS(=O)(=O)C2)n1 (centres unmarked)	-1.11
Cc1ccc2nc3c(cc(C(=O)NCc4cccnc4)c(=N)n3C3CCCCC3)c(=O)n2c1	1.97
Cc1cc(C)cc(OC(C)C(=O)N(Cc2ccco2)C2CCS(=O)(=O)C2)c1 (centres unmarked)	0.569
COc1cc(C(=O)N2CCN(C(=O)c3cc(-c4cccs4)[nH]n3)CC2)cc(OC)c1OC	-2.68
CCc1ccc(NS(=O)(=O)c2ccc(OC)cc2)cc1	-1.62
CC1CCN(S(=O)(=O)c2ccc(NC(=O)Cc3ccc(F)cc3)cc2)CC1	1.83
Cc1nn(C)c(C(=O)N2CCc3ccccc32)c1Br	5.03
Cc1ccc(OCc2nnc3sc(NC(=O)c4ccccc4)nn23)cc1	3.3
CC1CCN(Cc2nc3c(c(=O)n(C)c(=O)n3C)n2CC(=O)c2ccccc2)CC1	0.317

SMILES	% Inhibition @ 10 uM [%]
O=C1c2ccccc2C(=O)N1c1cnc(O)nc1O	-9.34
C=CCNC(=O)CN(c1ccccc1CC)S(=O)(=O)c1ccccc1	-3.83
Cc1ccccc1OCc1nc(C#N)c(NCCN2CCOCC2)o1	-4.6
O=C(c1ccc([N+](=O)[O-])cc1Cl)N1CCCC1	2.13
COc1ccc(C2=NOC(C(=O)N3CCC(Cc4ccccc4)CC3)C2)cc1 (centres unmarked)	1.42
Oc1nncn2c1c(-n1cccc1)c1c3c(sc12)CCCC3	-3.34
Cc1cccc(-n2c(SCC(N)=O)nnc2-c2cccs2)c1C	-4.97
C[n+]1cccc(C2CCCCN2C(=O)C2(c3ccccc3)CCCC2)c1 (centres unmarked)	0.222
COc1cccc(-n2c(SCC(=O)NCC3CCCO3)nc3nnc(C)c-3c2N)c1 (centres unmarked)	-2.17
Cc1cc(/C=C2/SC(=O)N(C)C2=O)c(C)n1-c1ccccc1	-1.59
CN1CCN(C(=O)Cn2ncc3c4ccccc4n(Cc4cccc(Cl)c4)c3c2=O)CC1	-1.58
Fc1ccc(-c2nnc3ccc(N4CCN(C(=S)NCc5ccccc5)CC4)nn23)cc1	1.89
COc1cccc(NC(=O)CN(c2ccccc2F)S(=O)(=O)c2ccccc2)c1	-3.25
COc1cc(OC)c(C2Nc3ccc(C)cc3-c3cc(C)nn32)cc1OC (centres unmarked)	-9.31
COc1ccc(C(=O)Nc2ccccc2C(N)=O)cc1Br	-5.32
CN1CCN(CCCNC(=O)CCn2cnc3onc(-c4ccc(F)cc4)c3c2=O)CC1	-3.08
Cc1ccc(N2C(=O)NC(=O)/C(=C/Nc3cc(C(=O)O)ccc3C)C2=O)cc1	5.89
CS(=O)(=O)CCC(C(=O)Nc1ccccc1)N1C(=O)c2ccccc2C1=O (centres unmarked)	-0.425
Cc1cccc(CCNC(=O)c2ccc(C/N=c3/c(N4CCCCC4)c(O)c3=O)cc2)c1	-4.04
CCSc1nc(=O)c2c(n1C)NC(=O)CC2c1cc(F)cc(F)c1 (centres unmarked)	0.596
Cc1cc(Cl)ccc1OCC(=O)Nc1ccc(S(=O)(=O)N2CCOCC2)cc1	-2.03
Cc1nc2ccsc2c(=O)n1-c1cccc(Cl)c1	1.15
O=C(CN1C(=O)C2C3c4ccccc4C(c4ccccc43)C2C1=O)Nc1cccc(O)c1 (centres unmarked)	0.605
